Results on 44 sequences are retold here after the supplement of paper PMC11417369.

Some of the results follow.

The experiment has as its system PfSIP2 AP2 domain 1 (GST-tagged). In words: gcPBM binding intensity (ln(normalized median fluorescence intensity)); higher = stronger DNA binding. A digest of the protocol: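 GST-fused DNA-binding domains of P. falciparum, expressed in E. coli, were applied at about 25 μg on average for 1 h to an Agilent 4 × 180k array of primer-extended double-stranded 36-bp intergenic genomic probes and negative controls. Binding intensity is the highest Masliner-normalised natural-log median intensity across replicate spots of either probe orientation, measured with Alexa488 anti-GST antibody and a 488 nm scan.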
With “ATTTTTTTTTTTTATGGTACACACACGCGTATGGTT [XGTACX_site3888]”, the “gcPBM binding intensity (ln)” value worked out at 7.18.

“TTTCAACTTTTGTCATGTACACATAATTTTATTGCA [XGTACX_site6701]”: the “gcPBM binding intensity (ln)” value amounted to 7.07.

On to “ATTTATTTATCAAATATTATCTTAAAAAAAAAAGAA [CACACA_negctrl_site1345]”, for which the “gcPBM binding intensity (ln)” value turned out to be 6.93.

For the sequence “ATATTAAATATATACAGTACACATTACAATACAATA [XGTACX_site3221]”, the “gcPBM binding intensity (ln)” value turned out to be 7.17.

For “CTTTGTAGTTGGTCCACACACATATCTGGAAGAATA [CACACA_site4834]”, the “gcPBM binding intensity (ln)” value was 6.94.

Take “TAAGCGTTTTTTAAAACACACATAAGAACTAAATGA [CACACA_site1670]”: the “gcPBM binding intensity (ln)” value is 6.82.

On to “TATTTTCCATGAGGTAGTACACATTAAAAAATCGTT [XGTACX_site6887]”, for which the “gcPBM binding intensity (ln)” value was 7.03.

As to “TTTCTTAAACCGTACAGTACACACCTTTATAATGTT [XGTACX_site434]”, the “gcPBM binding intensity (ln)” value was 7.01.

In the case of “TAATATTAAAAAGAGACACACAAAAATATTAAAAAA [CACACA_site3120]”, the “gcPBM binding intensity (ln)” value amounted to 7.02.

Regarding “TTACACCTTAGGATCTGTACAAATATATGACAAATC [XGTACX_site4333]”, the “gcPBM binding intensity (ln)” value came out at 7.

Consider “AAGGTTTTGGGTTTTAATTAATTTAATATGATTATA [XGTACX_negctrl_site147]”, for which the “gcPBM binding intensity (ln)” value was 6.84.

In the case of “CGACTTTTAAAATATACACACATATAAATAAATATA [CACACA_site6523]”, the “gcPBM binding intensity (ln)” value amounted to 7.11.

As to “TTACAATATAATAAATGTACATATAACAAATATATA [XGTACX_site2199]”, the “gcPBM binding intensity (ln)” value came out at 7.1.

Consider “TTTTTTTTTTTTTGTAGTACATACTATTTTATTAAT [XGTACX_site950]”, for which the “gcPBM binding intensity (ln)” value is 7.01.

With “AGAATTATATACACAAGTACATAATGACATATATAT [XGTACX_site5617]”, the “gcPBM binding intensity (ln)” value is 7.07.

In the case of “TAGATGTATTTTTAAAGTACTTTTTAATATATAATC [XGTACX_site1431]”, the “gcPBM binding intensity (ln)” value worked out at 7.15.

On to “TAAAAAATTATATTCACACACATACACATATATATA [CACACA_site545]”, for which the “gcPBM binding intensity (ln)” value was 7.2.

Consider “TGTATATCACATGAGAGGTGGAGATGGGGATAAATA [CACACA_negctrl_site1148]”, for which the “gcPBM binding intensity (ln)” value came to 6.83.

Consider “ATACAATTCTTACATTGTACTTTTTTTTTTTATCAC [XGTACX_site6327]”, for which the “gcPBM binding intensity (ln)” value came out at 6.96.

Regarding “TACAACCTTTAGACAAGTACAAGAATTATATGTGGC [XGTACX_site4581]”, the “gcPBM binding intensity (ln)” value is 7.25.

“ACAAAATATATAGACACACAAACACAAATATGTTTT [CACACA_site3016]”: the “gcPBM binding intensity (ln)” value was 7.04.

In the case of “TTAATATGAATTATTACATGCAACTAAATATATTTA [TGCATGCA_site490]”, the “gcPBM binding intensity (ln)” value turned out to be 6.99.

On to “TAATACAGATTAAAAGGTACACTTATTTGGTATTAT [XGTACX_site4966]”, for which the “gcPBM binding intensity (ln)” value stood at 6.95.

Consider “TCTATACCTATTCTTACACACATATGTATAAATATA [CACACA_site6407]”, for which the “gcPBM binding intensity (ln)” value was 7.3.

Consider “TTGACAACTCTTTTCATACACACAAAAAAAAAAAAA [CACACA_site2362]”, for which the “gcPBM binding intensity (ln)” value worked out at 6.98.

Regarding “ACTAAAAAAATAAACACACAGATTTATATAATATAT [CACACA_site4884]”, the “gcPBM binding intensity (ln)” value worked out at 6.97.

“TATCTTTATATATAGTGTACACATTAAACAAATCTC [XGTACX_site7381]”: the “gcPBM binding intensity (ln)” value turned out to be 7.09.

For “TATTAATGATAAGAATATTTTATATGATACATGCAT [CACACA_negctrl_site923]”, the “gcPBM binding intensity (ln)” value is 6.7.

In the case of “TATAAATAAATATGTACACACATATATACCTTTCAT [CACACA_site7291]”, the “gcPBM binding intensity (ln)” value amounted to 7.04.

Take “AATAATTAACAAAAAAAAAAAAAAAAAAAAAAAAAA [GTGCAC_negctrl_site255]”: the “gcPBM binding intensity (ln)” value was determined as 6.85.

As for “TATGTATTATATATTTGTACTCATTCTAATTCCTTC [XGTACX_site7294]”, the “gcPBM binding intensity (ln)” value came to 6.95.

Turning to “ACATATATGTATAATACACACACTAATATATAATTG [CACACA_site1966]”, the “gcPBM binding intensity (ln)” value stood at 7.15.

Consider “ATTTAAAAAAAAACGGAATTTTTTTTTTTTTTAAAG [XGTACX_negctrl_site91]”, for which the “gcPBM binding intensity (ln)” value is 6.68.

On to “ATATTCATATATTTACGTACATACATTTATATATTT [XGTACX_site7644]”, for which the “gcPBM binding intensity (ln)” value worked out at 7.07.

In the case of “TATATTAATGTTCATAGTACGTATGATTAGGAAAAA [XGTACX_site616]”, the “gcPBM binding intensity (ln)” value came out at 7.15.

Turning to “GGAAAGACAGTTCACAGTACCCAGGAAATCTGCGGA [XGTACX_site4933]”, the “gcPBM binding intensity (ln)” value came out at 6.49.

“TTTAGTTTTTATATAGCACACATATTGTGATTATGT [CACACA_site8316]”: the “gcPBM binding intensity (ln)” value is 6.96.

As for “AATTTATAAAAGAAGAGGACACATATAAATATAAAT [XGTACX_site59]”, the “gcPBM binding intensity (ln)” value amounted to 6.96.

In the case of “TGTAGTCTGGAGAAGAGTACATAGTATCTGGTAGCT [XGTACX_site2029]”, the “gcPBM binding intensity (ln)” value stood at 6.72.

“GAATTGTATTGGTACTGTACAATTAAATTAAAAAAA [XGTACX_site1891]”: the “gcPBM binding intensity (ln)” value stood at 6.84.

Take “AAAAAAAAAAAACACACACACACACCCATATATAAA [CACACA_site1170]”: the “gcPBM binding intensity (ln)” value came to 7.14.

As to “ACATAAAATTATTATACATGCATATTTAATTTTTTC [TGCATGCA_site353]”, the “gcPBM binding intensity (ln)” value was 6.98.

As to TTTTTTGTTAAGTTGGTGCAAACAATAGTTATTGAC, the “gcPBM binding intensity (ln)” value came to 9.7.

For “TATATCTACTACACACGTACACAAAATAAGATACCT [XGTACX_site7886]”, the “gcPBM binding intensity (ln)” value was found to be 7.18.
